Test results: patent US20210380678A1 (published 2021)

How the values were obtained:
Test in all cases: BLI steady-state
[1] = target: T1, Fc portion of human IgG1-fused LGR5-ECD (R&D systems) (UniProt O75473 22-557)
T1 chain: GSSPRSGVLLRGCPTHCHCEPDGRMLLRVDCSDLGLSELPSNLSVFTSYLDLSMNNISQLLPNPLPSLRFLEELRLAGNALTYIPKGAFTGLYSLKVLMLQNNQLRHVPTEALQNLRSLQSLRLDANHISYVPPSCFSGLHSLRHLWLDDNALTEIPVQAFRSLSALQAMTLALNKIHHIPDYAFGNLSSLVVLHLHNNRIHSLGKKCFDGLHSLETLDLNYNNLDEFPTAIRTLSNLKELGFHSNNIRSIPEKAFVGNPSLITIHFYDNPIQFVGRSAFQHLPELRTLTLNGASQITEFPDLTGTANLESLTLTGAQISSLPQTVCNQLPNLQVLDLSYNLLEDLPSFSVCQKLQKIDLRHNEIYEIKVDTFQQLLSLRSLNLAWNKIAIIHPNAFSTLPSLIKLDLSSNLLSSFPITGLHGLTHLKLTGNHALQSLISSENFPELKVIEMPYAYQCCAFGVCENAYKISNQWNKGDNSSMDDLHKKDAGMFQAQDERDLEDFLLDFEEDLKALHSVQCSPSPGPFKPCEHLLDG

[2] = target: T2, human ZNRF3 extracellular domain (hZNRF3 ECD) (UniProt Q9ULT6 56-219, biotinylated (His-Avi tag))
T2 chain: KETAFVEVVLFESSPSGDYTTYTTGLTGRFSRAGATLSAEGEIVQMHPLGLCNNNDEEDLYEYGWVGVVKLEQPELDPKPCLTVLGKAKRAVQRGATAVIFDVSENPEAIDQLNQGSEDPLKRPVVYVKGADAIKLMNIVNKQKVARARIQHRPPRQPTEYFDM

[3] = target: T3, human RNF43 extracellular domain (hRNF43 ECD) (UniProt Q68DV7 44-197, biotinylated (His-Avi tag))
T3 chain: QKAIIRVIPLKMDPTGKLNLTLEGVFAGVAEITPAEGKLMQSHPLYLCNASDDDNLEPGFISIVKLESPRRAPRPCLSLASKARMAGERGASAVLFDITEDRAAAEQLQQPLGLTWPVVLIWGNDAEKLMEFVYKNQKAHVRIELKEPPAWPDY

B1: αASGR1-RSPO2-WT (anti-ASGR1, RSPO2 wild type) (other)
chain: [letters of about 100 residues omitted]DFSSRRWYLEYWGQGTLVTVSSGGGGSGGGGSGGGGSELTQDPAVSVALGQTVRITCQGDSLRSYYASWYQQKPGQAPVLVIYGKNNRPSGIPDRFSGSSSGNTASLTITGAQAEDEADYYCNSLERIGYLSYVFGGGTKLTVLGSGGSNPICKGCLSCSKDNGCSRCQQKLFFFLRREGMRQYGECLHSCPSGYYGHRAPDMNRCARCRIENCDSCFSKDFCTKCKVGFYLHRGRCFDECPDGFAPLEETMECVEGGDYKDDDDKGSHHHHHHHH
With B1 the Kd [1] was 6.5 nM, the Kd [2] was 51 nM and the Kd [3] was 22 nM.
